For 6 molecules, binding signal results are on record in paper PMC12136788.

B1: chr20:62294722:62294823:+|3pUTR|ENSG00000130703|unk|FALSE|unique (ssRNA)
RNA: GGGAGUUCUACAGUCCGACGAUCCGCACACCGCGUCCGUGUCUCCAGGGGGUUCCUUUCUUCUCACACGUCGCGUGUACCCAUAGCACUCUUGUGUUUCUGUUUUUCCCAGUAUGCAUGUUUAAAAUAGAAGUGACAAGAAUCCAACAGAGGAUUGAGCAUCA
B2: chr4:38700566:38700667:+|3pUTR|ENSG00000109787|unk|total|mutant (ssRNA)
RNA: GGGAGUUCUACAGUCCGACGAUCUACAAAGCCAUCUUUACAUGCAUUAAACGAGGGCUACAACAAUAUUGUUUUACAAAUACCCGCACUUUUUUUUCUGUUAUGUACUCCGUGUCCGAGGGUCAAAAUAAUCUUUCUGCUCCGCAACAGAGGAUUGAGCAUCA
B3: chr6:157944353:157944454:+|3pUTR|ENSG00000130340|unk|total|mutant (ssRNA)
RNA: GGGAGUUCUACAGUCCGACGAUCAGUAAUUCUCCCCACUUGAUUUUUCUUCUAUAAAAUCCCACCGAACAAUGUUUAUGCUACCGCCAUUUAAUAUAUGUACAAAUUGUAAAGAAUAUGUAUAAAUGUUUUACACGAAUGUAACAACAGAGGAUUGAGCAUCA
B4: chr8:65724783:65724899:-|CDS|ENSG00000205268|unk|total|mutant (ssRNA)
RNA: GGGAGUUCUACAGUCCGACGAUCACCGGUGCUCUGAUACCCGCCACAGACAUCAGUCGCCAGAAUGAGUAUCUGUCUUUGUUCCGGUCCCAUUUGGACCGAGGUGAUUUAUGCCCCGAAGACACCAGACACAGACAUUUGGUUCAACAGAGGAUUGAGCAUCA
B5: chr2:128192346:128192447:+|3pUTR|ENSG00000136731|msi1|FALSE|unique (ssRNA)
RNA: GGGAGUUCUACAGUCCGACGAUCAGAAAAUGAUGUUACCACUAAAAUAUUUUCUCCAAGAAGGCAUACUGUAACAGAAAAGAUAGGUAAGAUAUUUUUUUCCCAAGAAGUAAGAAUUGAUUGUGCUGAAUGUUCAAACUCUGGCAACAGAGGAUUGAGCAUCA
B6: chr19:21059139:21059240:+|3pUTR|ENSG00000118620|unk|total|mutant (ssRNA)
RNA: GGGAGUUCUACAGUCCGACGAUCGUAAAAAUGAAAAUAUUUAAUCCAAAAUUAAGUCUAUGUAAAUAUCAGAGAAUUUACUGCCGAAAUAUAUAAGGCACUGAGACUUCAGAUAUUAUACUAAAUCAGAGUGCUGAGUACCGACAACAGAGGAUUGAGCAUCA

The other results are listed elsewhere or left out.

This test concerns the target T1, UNK ZnF1-6 (called full-length) (human, UniProt Q9C0B0 30-357).
T1 sequence: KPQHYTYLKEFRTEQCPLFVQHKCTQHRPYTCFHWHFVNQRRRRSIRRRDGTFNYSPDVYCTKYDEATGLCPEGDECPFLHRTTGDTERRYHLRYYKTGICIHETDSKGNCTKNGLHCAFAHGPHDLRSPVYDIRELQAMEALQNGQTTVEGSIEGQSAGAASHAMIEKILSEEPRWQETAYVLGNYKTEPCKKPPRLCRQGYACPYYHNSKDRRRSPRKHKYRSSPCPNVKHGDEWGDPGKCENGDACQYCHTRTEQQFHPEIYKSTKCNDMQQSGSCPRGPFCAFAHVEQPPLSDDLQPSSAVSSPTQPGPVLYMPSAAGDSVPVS
The experiment in a line: nsRBNS (natural sequence RNA bind-n-seq); RBNS binding buffer (assumed for nsRBNS): 25 mM Tris pH 7.5, 150 mM KCl, 3 mM MgCl2, 0.01% Triton X-100, 500 ug/ml BSA, 20 U/ml SUPERase-In, 4 C; UNK is unkempt and MSI1 is Musashi-1; names of the RNAs are library labels; protein concentration not given here; high values mean tight binding.
B1 showed a binding signal of 0.624 enrichment R. B2 displayed a binding signal of 0.49 enrichment R. For the molecule B3, the binding signal is 0.493 enrichment R. Turning to B4, the binding signal amounted to 0.452 enrichment R. B5 yielded a binding signal of 0.563 enrichment R. In turn, B6 returned a binding signal of 0.9 enrichment R.
